Experimental data reported in patent US20090104205A1 (AstraZeneca / MedImmune, published 2009).

Key:
[1] = molecular target: T1, C-terminal truncated RSV F protein (secreted, from recombinant baculovirus) (respiratory syncytial virus, UniProt P03420 26-524); assay: SPR (BIAcore), F protein amine-coupled, Kd = kd/ka
T1 construct: also called immobilized F protein

[2] = molecular target: T1, C-terminal truncated RSV F protein …; assay: SPR (BIAcore), F protein amine-coupled, Mab injected at 25-300 nM

B1: chimeric 1129 (murine 1129 VH and VL joined to human C-Gamma1 and C-Kappa) (antibody, V domains shown)
VH: QVELQESGPGILQPSQTLSLTCSFSGFSLSTSGMSVGWIRQPSGEGLEWLADIWWDDKKDYNPSLKSRKTISKDTSSNQVFLKITGVDTADTATYYCARSMITNWYFDVWGAGTTVTVSS
VL: DIQLTQSPAIMSASPGEKVTMTCSASSSVGYMHWYQQKSSTSPKLWIYDTSKLASGVPGRFSGSGSGNSYSLTISSIQAEDVATYYCFQGSGYPFTFGGGTKLEIK
notes: also called CH1129; ch1129
Kd [1]: 1.5 nM
koff [2]: 7.5e-05 s⁻¹
kon [2]: 50000 M⁻¹ s⁻¹
t1/2 (dissociation half-life) [2]: 2.6 h
